Common to all, as to test: far-Western; lysates of HEK293T transfected with His-tagged MMRN2 constructs separated by SDS-PAGE under reducing conditions; probed 1 h with CLEC14A-ECD-Fc (2 μg/ml); only the binder purified
The target in assay [1] is T1, MMRN2 EMI and coiled-coil construct (MMRN2^EMI-CC) (human) (UniProt Q9H8L6).
T1 sequence: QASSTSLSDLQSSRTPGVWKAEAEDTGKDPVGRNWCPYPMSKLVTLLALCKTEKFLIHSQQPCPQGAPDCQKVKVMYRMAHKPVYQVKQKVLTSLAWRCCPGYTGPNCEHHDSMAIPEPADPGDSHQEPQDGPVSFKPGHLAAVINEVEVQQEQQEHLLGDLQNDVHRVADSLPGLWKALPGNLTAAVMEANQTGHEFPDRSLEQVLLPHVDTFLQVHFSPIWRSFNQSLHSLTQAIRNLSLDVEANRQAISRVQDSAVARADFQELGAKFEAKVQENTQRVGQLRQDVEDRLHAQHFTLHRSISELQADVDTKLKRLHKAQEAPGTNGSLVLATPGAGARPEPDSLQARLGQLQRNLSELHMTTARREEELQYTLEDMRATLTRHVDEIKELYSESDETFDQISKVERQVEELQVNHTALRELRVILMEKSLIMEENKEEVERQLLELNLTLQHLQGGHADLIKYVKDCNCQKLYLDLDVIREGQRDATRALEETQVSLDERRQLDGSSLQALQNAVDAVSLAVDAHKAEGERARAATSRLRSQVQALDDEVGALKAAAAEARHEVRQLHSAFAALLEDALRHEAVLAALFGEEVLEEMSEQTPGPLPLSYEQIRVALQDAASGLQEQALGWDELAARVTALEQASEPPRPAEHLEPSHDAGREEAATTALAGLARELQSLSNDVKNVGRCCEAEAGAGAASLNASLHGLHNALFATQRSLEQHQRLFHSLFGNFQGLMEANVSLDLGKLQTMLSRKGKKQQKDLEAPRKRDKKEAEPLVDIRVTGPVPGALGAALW

Sequences of proteins named here, by UniProt entry; tags and fusion partners are left off. Residues count along the entry.
UniProt Q86T13, residues 22-397: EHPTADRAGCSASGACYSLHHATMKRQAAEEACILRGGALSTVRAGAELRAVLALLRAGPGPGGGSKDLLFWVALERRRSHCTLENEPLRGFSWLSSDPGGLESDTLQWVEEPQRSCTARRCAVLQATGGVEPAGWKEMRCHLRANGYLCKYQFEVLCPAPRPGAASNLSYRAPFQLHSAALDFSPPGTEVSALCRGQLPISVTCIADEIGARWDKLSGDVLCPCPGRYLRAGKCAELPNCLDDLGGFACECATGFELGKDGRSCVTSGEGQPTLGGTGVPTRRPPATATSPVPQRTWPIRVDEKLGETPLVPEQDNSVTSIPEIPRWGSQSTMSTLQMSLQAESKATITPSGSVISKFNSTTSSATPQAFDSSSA

For the next assay, the target named is T2, MMRN2^487-603 (human) (UniProt Q9H8L6).
T2 sequence: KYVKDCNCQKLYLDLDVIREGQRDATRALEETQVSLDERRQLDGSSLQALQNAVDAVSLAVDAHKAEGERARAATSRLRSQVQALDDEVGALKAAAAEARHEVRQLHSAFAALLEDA

In a further assay the target is T3, MMRN2^487-674 (human) (UniProt Q9H8L6).
T3 sequence: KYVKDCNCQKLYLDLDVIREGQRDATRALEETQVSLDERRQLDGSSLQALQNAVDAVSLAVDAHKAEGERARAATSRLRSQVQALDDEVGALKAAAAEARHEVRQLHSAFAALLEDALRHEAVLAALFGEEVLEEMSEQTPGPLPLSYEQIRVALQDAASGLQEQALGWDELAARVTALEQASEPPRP

The target of assay [2] is T4, MMRN2 coiled-coil alone (MMRN2^CC) (human) (UniProt Q9H8L6).
T4 sequence: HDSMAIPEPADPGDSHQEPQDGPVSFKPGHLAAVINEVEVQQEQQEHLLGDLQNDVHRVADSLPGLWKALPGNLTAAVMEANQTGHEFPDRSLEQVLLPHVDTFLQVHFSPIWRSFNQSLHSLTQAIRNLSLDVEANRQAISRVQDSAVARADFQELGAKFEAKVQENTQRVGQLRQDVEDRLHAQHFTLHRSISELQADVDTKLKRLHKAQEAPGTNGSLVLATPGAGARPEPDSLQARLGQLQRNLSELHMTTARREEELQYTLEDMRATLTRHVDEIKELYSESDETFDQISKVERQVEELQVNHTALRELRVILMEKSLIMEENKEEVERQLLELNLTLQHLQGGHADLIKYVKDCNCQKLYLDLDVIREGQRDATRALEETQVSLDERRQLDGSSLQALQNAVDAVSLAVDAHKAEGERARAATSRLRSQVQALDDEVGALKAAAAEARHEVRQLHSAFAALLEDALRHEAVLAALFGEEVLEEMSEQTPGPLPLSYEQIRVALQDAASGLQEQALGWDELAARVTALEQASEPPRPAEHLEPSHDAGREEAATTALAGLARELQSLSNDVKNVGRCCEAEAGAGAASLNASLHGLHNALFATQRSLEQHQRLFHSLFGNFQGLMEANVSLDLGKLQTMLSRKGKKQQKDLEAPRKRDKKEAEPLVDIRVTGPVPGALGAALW

For a further assay, the target named is T5, MMRN2^487-820 (human) (UniProt Q9H8L6).
T5 sequence: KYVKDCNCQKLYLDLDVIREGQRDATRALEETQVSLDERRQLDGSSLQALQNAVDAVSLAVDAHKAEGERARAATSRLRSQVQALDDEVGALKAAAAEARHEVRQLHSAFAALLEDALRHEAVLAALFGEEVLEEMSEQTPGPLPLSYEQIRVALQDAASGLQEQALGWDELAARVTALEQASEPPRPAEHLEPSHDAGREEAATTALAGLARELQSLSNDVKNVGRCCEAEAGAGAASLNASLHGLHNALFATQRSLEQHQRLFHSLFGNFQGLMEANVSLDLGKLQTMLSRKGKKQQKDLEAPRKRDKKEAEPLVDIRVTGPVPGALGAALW

The target in the next assay is T6, MMRN2^604-674 (human) (UniProt Q9H8L6).
T6 sequence: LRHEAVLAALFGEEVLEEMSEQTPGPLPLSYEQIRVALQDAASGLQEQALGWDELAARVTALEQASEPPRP

Results are given in words; binding and its absence hold for the method and conditions named. Some binding calls cover weakened binding; strength is not graded here.

For “recombinant CLEC14A extracellular domain with an Fc tag (CLEC14A-ECD-Fc) (from UniProt Q86T13 22-397) (Fc fusion)”, the binding entry in assay [1] is on record as “binds”; with MMRN2^487-603 (human), “no binding (tested: 2 μg/ml)”; with MMRN2^487-674 (human) it was “binds”; in assay [2], “binds”; with MMRN2^487-820 (human), “binds”; in the assay with MMRN2^604-674 (human), “no binding (tested: 2 μg/ml)”.

(Values after PMC5671938, “Multimerin-2 is a ligand for group 14 family C-type lectins CLEC14A, CD93 and CD248 spanning the endothelial pericyte interface” (Oncogene, 2017).)
